{"source": "PubChem BioAssay AID686970", "about": "(National Center for Advancing Translational Sciences (NCATS), 2013)", "note": "The campaign covered roughly 360,000 compounds. About 6,000 (1.7%) were called active. This list was built around the results that the source calls inconclusive (neither active nor inactive); the mix of calls is not that of the screen. Calls come from the whole dose curve; as a rule, active = well fitted cell-killing curve with a large enough effect; inconclusive = small, poorly fitted or top-dose-only effect, or effect the other way; inactive = flat fitted curve, though single readings scatter. Potencies of inconclusive entries are left out as doubtful fits. Potency is the fitted concentration of half-maximal effect; tags give direction and shape of the fitted curve."}
{"assay": "qHTS for induction of synthetic lethality in tumor cells producing 2HG: qHTS for the HT-1080-NT fibrosarcoma cell line;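 note: NT is the 2HG producing partner of a matched IDH1 knockdown line; nearly all actives have a fitted effect of over 55% in size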;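 for activity, negative = less viability: 0% = DMSO-treated cells and -100% = media-only wells without cells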", "details": "HT-1080-NT fibrosarcoma viability, CellTiter-Glo ATP luminescence, 48 h; activity, negative = less viability: at 46.1 µM (top of the series) unless noted", "how_it_was_run": "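Luminescent CellTiter-Glo readout after 48 hours of compound exposure at 37 degrees C defined viability of HT-1080-NT cells. Activity was normalized to DMSO wells and cell-free media wells; concentration-response curves were fitted and assigned curve classes.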"}
{"smiles": "COc1cccc(C2c3[nH]c4ccccc4c3CCN2Cc2cnc(C)s2)c1OC", "note": "(stereo not given)", "Potency": "inconclusive [cytotoxic, partial curve]"}
{"smiles": "N#Cc1cn(CC(=O)NCCc2c[nH]c3ccccc23)c2ccccc12", "Potency": "inconclusive [cytotoxic, single point]"}
{"smiles": "O=[N+]([O-])c1ccc(/C=N/Nc2ccnc3cc(Cl)ccc23)o1", "Potency": "inconclusive [cytotoxic, single point]"}
{"smiles": "O=C(CSc1nc2cc(Cl)ccc2s1)NC(=O)NCc1ccco1", "Potency": "inconclusive [cytotoxic, single point]"}
{"smiles": "Cc1nn(CC(=O)NNC(=O)c2ccccc2F)c([N+](=O)[O-])c1Br", "Potency": "inconclusive [rising, single point]"}
{"smiles": "Cc1c(C(=O)NCC(c2ccco2)N2CCCC2)oc2ccc(Cl)cc12", "note": "(stereo not given)", "Potency": "inconclusive [cytotoxic, single point]"}
{"smiles": "COc1ccc(Nc2nc(N)c(C(=O)c3ccc(F)cc3)s2)cc1", "Potency": "inconclusive [cytotoxic, full curve]"}
{"smiles": "Cc1cc(C)c(CN2CCN(C(=O)Cn3ccc(NC(=O)OCc4ccccc4)nc3=O)CC2)c(C)c1", "Potency": "inconclusive [cytotoxic, single point]"}
{"smiles": "CC(/C=N/NC(=O)c1nnn(-c2nonc2N)c1CN1CCCCC1)=C\\c1ccccc1", "Potency": "inconclusive [cytotoxic, single point]"}
{"smiles": "O=C(NC1CCCC1)C1CCN(C(=O)c2cccc(Cl)c2)CC1", "activity, negative = less viability": "inactive: 5.41%"}
{"smiles": "COc1ccccc1Nc1nnc(SCC2CCCCO2)s1", "note": "(stereo not given)", "Potency": "active: 16.4 µM"}
{"smiles": "CC(C)(C)n1nnnc1C(c1ccc(C(F)(F)F)cc1)N(Cc1ccc(F)cc1)Cc1ccco1", "note": "(stereo not given)", "Potency": "inconclusive [cytotoxic, single point]"}
{"smiles": "O=C(COC(=O)c1ccccc1SCC(=O)N1CCCC1)Nc1ccc(OC(F)F)cc1", "activity, negative = less viability": "inactive: -4.26%"}
{"smiles": "O=C(/C=C\\c1ccccc1)Oc1cccc2cccnc12", "Potency": "inconclusive [cytotoxic, single point]"}
{"smiles": "COc1cc(/C=C/C(=O)OCC(=O)Nc2ccc(NC(C)=O)cc2)cc(S(=O)(=O)N2CCc3ccccc32)c1OC", "Potency": "inconclusive [cytotoxic, single point]"}
{"smiles": "Cc1ccc(C(=O)N2CCC(n3nccc3NC(=O)C3CCOC3)CC2)cc1", "note": "(stereo not given)", "Potency": "inconclusive [rising, single point]"}
{"smiles": "O=C(C1=NN[C@@H]2C(=O)N(c3ccccc3C(F)(F)F)C(=O)[C@H]12)c1ccc2ccccc2n1", "Potency": "inconclusive [rising, partial curve]"}
{"smiles": "Cc1ccc(-c2cccc(C(=O)NCc3ccccc3)n2)c2ccccc12", "Potency": "inconclusive [cytotoxic, single point]"}
{"smiles": "COCCOC(=O)C1=C(N)Oc2c(oc(CO)cc2=O)C1c1ccccc1F", "note": "(stereo not given)", "activity, negative = less viability": "inactive: 0.304%"}
{"smiles": "Cc1cccc(N2CCN(C(=O)c3ccc(CS(=O)Cc4ccc(Cl)cc4)o3)CC2)c1C", "note": "(stereo not given)", "activity, negative = less viability": "inactive: -29.9%"}
{"smiles": "Cc1nn(-c2ccccc2)c(C)c1/C=N/NC(=O)c1cc(C23CC4CC(CC(C4)C2)C3)[nH]n1", "Potency": "inconclusive [cytotoxic, partial curve]"}
{"smiles": "CC1(C)CCCN(Cc2c(O)ccc3c(=O)c(-c4nc5ccccc5s4)c(N)oc23)C1", "Potency": "inconclusive [cytotoxic, single point]"}
{"smiles": "Cc1cccc(C(=O)NC(C)C(=O)NC(c2nc3ccccc3[nH]2)C(C)C)c1", "note": "(stereo not given)", "activity, negative = less viability": "inactive: -2.1%"}
{"smiles": "CC(C)C[C@H](NC(=O)c1[nH]cnc1C(=O)N[C@@H](C)C(=O)OC(C)(C)C)C(=O)OCc1ccccc1", "Potency": "inconclusive [cytotoxic, single point]"}
{"smiles": "COc1ccc(CN(C)C(=O)c2cccc(S(=O)(=O)N3CCN(c4ccccc4)CC3)c2)c(OC)c1OC", "Potency": "inconclusive [cytotoxic, single point]"}
{"smiles": "Cc1ccc(NC(=Nc2ccc(Br)cc2)N2CCOCC2)cc1C", "Potency": "inconclusive [cytotoxic, single point]"}
{"smiles": "COc1ccc(CC(=O)Nc2ccc(S(=O)(=O)NC(C)C)cc2)cc1", "activity, negative = less viability": "inactive: -3.76%"}
{"smiles": "COCCn1c(SCC(=O)Nc2cc(C)on2)nnc1C(C)C", "activity, negative = less viability": "inactive: 1.46%"}
{"smiles": "CC(C)(C)c1ccc(OCC(O)CN(CCO)CC(O)Cn2ccc3ccccc32)cc1", "note": "(stereo not given)", "Potency": "inconclusive [cytotoxic, single point]"}
{"smiles": "CCOC(=O)/C=C/C(=O)Nc1ccc(Oc2ccccc2)cc1", "Potency": "active: 7.31 µM"}
{"smiles": "CC1(C(=O)NS(=O)(=O)c2ccc(Cl)cc2)CCN1C(=O)Cc1ccc(Cl)cc1Cl", "note": "(stereo not given)", "activity, negative = less viability": "inactive: 3.83%"}
{"smiles": "CS(=O)(=O)c1ccc(C(=O)CN2C(=O)NC3(CCCc4ccccc43)C2=O)cc1", "note": "(stereo not given)", "activity, negative = less viability": "inactive: -0.293% [at 9.24 µM]"}
{"smiles": "CN(C)CCCN(Cc1ccccc1)C(=S)Nc1ccc(F)c(Cl)c1", "Potency": "inconclusive [cytotoxic, partial curve]"}
{"smiles": "Cc1nc2ccccn2c1-c1ccnn1S(=O)(=O)c1ccc(F)cc1", "Potency": "inconclusive [cytotoxic, single point]"}
{"smiles": "CCCOc1ccc(C(=O)NC(=S)Nc2nc3ccccc3s2)cc1", "activity, negative = less viability": "inactive: 2.62%"}
{"smiles": "COc1cc2ccccc2cc1C(=O)N/N=C/c1cccs1", "Potency": "inconclusive [cytotoxic, full curve]"}
{"smiles": "CCN(CC)c1cc(C)c2cc(NC(=O)c3ccccc3OC)ccc2n1", "Potency": "inconclusive [cytotoxic, single point]"}
{"smiles": "O=C(c1[nH]c(C(F)(F)F)nc1-c1ccccc1)N1CCN(c2ccccc2)CC1", "Potency": "inconclusive [cytotoxic, full curve]"}
{"smiles": "O=C(Nc1nc(-c2cccs2)cs1)c1ccc(S(=O)(=O)N2CCCCC2)cc1", "Potency": "inconclusive [cytotoxic, single point]"}
{"smiles": "Cc1oc(C(C)(C)C)c(CN2CCCC2)c1C(=O)O", "Potency": "inconclusive [rising, single point]"}
{"smiles": "O=C(O)c1ccc(N/N=C/c2ccc(-c3ccccc3Cl)o2)cc1", "Potency": "inconclusive [cytotoxic, partial curve]"}
{"smiles": "CCOC(=O)Cn1c(=N)n(CCOc2ccc3ccccc3c2)c2ccccc21", "Potency": "inconclusive [cytotoxic, single point]"}
{"smiles": "CN(c1ccc(C(=O)Nc2ccccc2C(=O)N2CCOCC2)cc1)S(C)(=O)=O", "activity, negative = less viability": "inactive: 20.2%"}
{"smiles": "CCOC(=O)c1nn(-c2ccc(Cl)cc2)c(C)cc1=O", "activity, negative = less viability": "inactive: 6.84%"}
{"smiles": "CC(C)C[C@H](NC(=O)c1nc[nH]c1C(=O)N[C@@H](CC(C)C)C(=O)OC(C)(C)C)C(=O)OCc1ccccc1", "Potency": "inconclusive [cytotoxic, single point]"}
{"smiles": "C(=C\\c1ccccc1)/CN1CCN(C(c2ccccc2)c2ccccc2)CC1", "activity, negative = less viability": "inactive: -14.8%"}
{"smiles": "CCOC(=O)C1(C)CCCN1C(=O)c1ccccc1F", "note": "(stereo not given)", "Potency": "inconclusive [rising, partial curve, poor fit]"}
{"smiles": "CCc1nc(N)nc(N)c1-c1ccc(N(C)Cc2ccccc2)c([N+](=O)[O-])c1", "Potency": "inconclusive [cytotoxic, full curve]"}
{"smiles": "Cc1[nH]n(-c2ccc([N+](=O)[O-])cc2)c(=O)c1C=NCCc1c[nH]c2ccccc12", "Potency": "inconclusive [cytotoxic, partial curve, poor fit]"}
{"smiles": "C=CCOC(=O)C1=C(C)NC(SCC(=O)Nc2nccs2)=C(C#N)C1c1ccc(Cl)cc1", "note": "(stereo not given)", "Potency": "inconclusive [cytotoxic, single point]"}
{"smiles": "Cc1nc(/C(N)=N/OC(=O)c2c(-c3ccccc3Cl)noc2C)cs1", "Potency": "inconclusive [cytotoxic, single point]"}
{"smiles": "Cc1noc(C)c1COc1ccc(CC(=O)NCCc2ccccn2)cc1", "Potency": "inconclusive [rising, partial curve, poor fit]"}
{"smiles": "Cc1cc(Br)c2c(c1)[C@](O)(c1cn(C)c3ccccc13)C(=O)N2C", "Potency": "inconclusive [cytotoxic, single point]"}
{"smiles": "COc1cc2c(cc1OC)/C(=C/c1ccc(Br)cc1)C(=O)OC2", "Potency": "inconclusive [cytotoxic, single point]"}
{"smiles": "C[C@@H](NC(=O)c1[nH]cnc1C(=O)Nc1cccc(Cl)c1)c1ccccc1", "Potency": "inconclusive [cytotoxic, single point]"}
{"smiles": "CCn1ncc(/C=N/NC(=O)c2cc(Cl)ccc2OC)c1C", "activity, negative = less viability": "inactive: 16.8%"}
{"smiles": "COCCn1c(SCc2csc(-c3ccccc3)n2)nc2ccccc21", "Potency": "inconclusive [cytotoxic, single point]"}
{"smiles": "CC(=O)Nc1cc(-c2cccc(C(=O)NCCN(C)C)c2)cn2c(-c3ccc(F)c(Cl)c3)cnc12", "Potency": "active: 16.4 µM"}
{"smiles": "CN(C)c1ccc(N=Nc2ccccc2C(=O)OCC(=O)N2CCCCCC2)cc1", "activity, negative = less viability": "inactive: -15.9%"}
{"smiles": "O=C1CCC(C(=O)N2CCCCO2)CN1Cc1cccc(F)c1", "note": "(stereo not given)", "activity, negative = less viability": "inactive: -0.107%"}
{"smiles": "OC(COc1ccc(Cl)c2ccccc12)CN1CCN(c2ccccn2)CC1", "note": "(stereo not given)", "Potency": "inconclusive [cytotoxic, single point]"}
{"smiles": "Nc1ccn([C@@H]2O[C@H](COS(=O)(=O)O)[C@@H](O)[C@H]2O)c(=O)n1", "activity, negative = less viability": "inactive: 1.28%"}
{"smiles": "C[C@@H]1CN([C@H](C)CO)C(=O)Cc2cc(NS(=O)(=O)c3ccc(Cl)cc3)ccc2O[C@H]1CN(C)Cc1ccc(C(F)(F)F)cc1", "Potency": "inconclusive [cytotoxic, single point]"}
{"smiles": "c1ccc(C[C@H]2CN=C(Nc3ccccc3)N2CC2CCCCCC2)cc1", "Potency": "inconclusive [cytotoxic, partial curve, poor fit]"}
{"smiles": "O=C(C1=C[C@H](c2ccc(Br)cc2)C[C@H](OCCCCO)O1)N1CCN(Cc2ccccc2)CC1", "Potency": "inconclusive [cytotoxic, single point]"}
